Results taken from PubChem BioAssay AID686978 (National Center for Advancing Translational Sciences (NCATS), 2013).
“And” between values parts separate entries of the source, which are not always exact repeats. Equal values may be shown once. The whole screen tested about 420,000 compounds, of which about 64,000 (15%) were called active. Inconclusive results, whose numbers are uncertain, are shown with a selection of clear calls. The call rests on the fitted dose curve; in most records, active means well fitted inhibition curve with a large enough effect; inconclusive means small, poorly fitted or top-dose-only effect; inactive means flat fitted curve, though single readings scatter. A potency beside an inconclusive call is a rough fit, not a confirmed value.
On the % scale 0 is the no-effect control and ±100 the full control effect; potency means the concentration at half of the fitted maximal effect; tags describe the fitted curve by direction and shape.

Assay: qHTS for Inhibitors of human tyrosyl-DNA phosphodiesterase 1 (TDP1): qHTS in cells in absence of CPT; further: nearly all actives have a fitted effect of over 55% in size
Details: DT40 Tdp1-/- hTDP1 cells, no CPT, ATP luminescence, 48 h; activity change, negative = growth inhibition: at 46.2 µM (top of the series) unless noted
Method in brief: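 Readout: luminescence from CellTiter-Glo after 30 min in the dark at RT. Cells: DT40 Tdp1-/- with stable hTDP1, 400/well. Exposure: compounds alone, ≥48 hr, 37 °C.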
For `O=C(N/N=C/c1cn(-c2ccccc2)nc1-c1ccc2c(c1)OCCO2)c1ccncc1`, the “activity change, negative = growth inhibition” value was inactive: -28.8%. With `CCOC(=O)C1=C(N)N2C(=O)C(C)SC2=C(C(=O)OCC)C1c1ccc(O)cc1` (centres undefined) the “activity change, negative = growth inhibition” value was inactive: -14.3%. With `CCC(C)n1c(SCC(=O)Nc2ccccc2C(=O)OC)nc2ccsc2c1=O` (centres undefined) the Potency was active: 18.4 µM. In the case of `CC(=O)Nc1ccccc1C(=O)C(=O)Nc1ccc(C(=O)N2CCOCC2)cc1`, the “activity change, negative = growth inhibition” value was inactive: -17.4%. With `CC1(C)Cc2c(sc3nc(-c4ccccc4Cl)n(N)c(=O)c23)CO1` the Potency was inconclusive: 23.1 µM [inhibitor, single point]. In the case of `COc1ccc(OC)c(NC(=O)CCN2CCCCCC2)c1`, the “activity change, negative = growth inhibition” value was inactive: -1.23%. In the case of `COc1cccc2sc(Nc3nnc(-c4ccc(F)cc4)o3)nc12`, the Potency was active: 5.8 µM. For `Cc1occc1C(=O)Nc1cccc([N+](=O)[O-])c1C`, the “activity change, negative = growth inhibition” value was inactive: 9.62%. For `CCOc1ccc(C(=O)N2CC(=O)Nc3ccc(C)cc3C2c2ccc(F)cc2)cc1OCC` (centres undefined), the Potency was inconclusive: 25.9 µM [inhibitor, single point]. With `CC(C)NC(=O)COc1ccc(S(=O)(=O)N(C)Cc2ccccc2)cc1` the Potency was inconclusive: 29.1 µM [inhibitor, single point]. With `CCOc1ccccc1C(=O)NCCCCNC(=O)c1ccccc1OCC` the Potency was inconclusive: 18.4 µM [inhibitor, single point]. For `CCOc1ccc(-c2nnc(NC(=O)Cc3ccc(OC)cc3)o2)cc1`, the “activity change, negative = growth inhibition” value was inactive: -19.9%. In the case of `COc1ccc(C(=O)NNC(=O)C(=O)Nc2ccc(C)cc2)cc1`, the Potency was inconclusive: 11.6 µM [inhibitor, partial curve]. For `CCc1ccc(NC(=O)C2CCCN(S(=O)(=O)c3ccc4c(c3)oc(=O)n4C)C2)cc1` (centres undefined), the “activity change, negative = growth inhibition” value was inactive: -26.9%. In the case of `COCCCNC(=O)CCCn1c(SCC(=O)c2ccc(Br)cc2)nc2c(sc3ccccc32)c1=O`, the Potency was inconclusive: 20.6 µM [inhibitor, partial curve]. For `CCCc1cc(=O)oc2cc(C)cc(OCC(=O)NC3CCN(Cc4ccccc4)CC3)c12`, the Potency was inconclusive: 25.9 µM [inhibitor, single point]. With `CCOC(=O)c1c(C)n(C)c2ccc(OCCN(C)C)cc12` the “activity change, negative = growth inhibition” value was inactive: 7.78%. With `CCN(CC)C(=O)c1ncn(Cc2ccccc2)c1C(=O)N(CC)CC` the “activity change, negative = growth inhibition” value was inactive: 20.8%. With `Cc1ccc2nc(-c3ccc(NC(=O)CN4C(=O)NC(C)(c5ccc(OC(F)F)cc5)C4=O)cc3)sc2c1` (centres undefined) the Potency was active: 23.1 µM. In the case of `COc1ccc(OCC(=O)Nc2cccc3ncccc23)cc1`, the “activity change, negative = growth inhibition” value was inactive: -19.5%. In the case of `COC(=O)c1ccc(CNC(=O)Cn2cnc3c(SC)nc(N)nc32)cc1`, the Potency was inconclusive: 10.3 µM [inhibitor, partial curve]. For `Cc1ccc(N(C(=O)C2CCCC2)C2C=CS(=O)(=O)C2)cc1C` (centres undefined), the “activity change, negative = growth inhibition” value was inactive: -9.25%. In the case of `Cc1ccc(CNc2ccc(N3CCOCC3)cc2)cc1`, the Potency was inconclusive: 29.1 µM [inhibitor, single point]. With `CCCCc1c(CCC)c(=N)c2ccccc2n1C` the Potency was active: 5.17 µM. In the case of `CC1(C)OC(C(O)(c2ccccc2)c2ccccc2)[C@@H](C(O)(c2ccccc2)c2ccccc2)O1` (some centres undefined), the Potency was inconclusive: 3.66 µM [inhibitor, full curve]. With `COC(=O)[C@H](CC(C)C)NCc1cccc(CN[C@@H](CC(C)C)C(=O)OC)c1` the “activity change, negative = growth inhibition” value was inactive: -26.5%. With `COc1ccccc1CCNC(=O)CNC(=O)c1ccc2ccccc2c1` the Potency was inconclusive: 25.9 µM [inhibitor, partial curve] and inconclusive: 35.5 µM [inhibitor, single point]. For `Nc1nccnc1C(=O)OCC(=O)NNC(=O)c1ccccc1`, the “activity change, negative = growth inhibition” value was inactive: 3.12%. With `CC(C)n1c(N2CCN(C(=O)Nc3ccc(Cl)cc3)CC2)nc2ccccc21` the “activity change, negative = growth inhibition” value was inactive: -27.4%. With `CCn1nccc1C(=O)Nc1ccc(S(=O)(=O)NC23CC4CC(CC(C4)C2)C3)cc1` the Potency was active: 16.4 µM. For `COc1ccc(CN2C(=O)CSCC2(C)C(=O)Nc2c(C)cccc2C)cc1OC` (centres undefined), the “activity change, negative = growth inhibition” value was inactive: -11%. With `CCCCC/C=C/C=C1/C(=O)C=C[C@@H]1C/C=C\CCCC(=O)O` the activity change, negative = growth inhibition was inactive: -30% [at 4.12 µM]. For `COc1cccc(C(C)(O)c2nc(-c3ccccc3C)cs2)c1` (centres undefined), the Potency was inconclusive: 29.1 µM [inhibitor, single point]. In the case of `N#Cc1c(-c2ccc(Cl)cc2)cc(-c2ccccc2)nc1SCC(=O)O`, the Potency was inconclusive: 29.1 µM [inhibitor, single point]. In the case of `COC(=O)c1ccc(NC(=O)c2cnn(-c3ccc(Cl)cc3)c2C2CCN(C(=O)OC(C)(C)C)CC2)cc1`, the Potency was inconclusive: 18.4 µM [inhibitor, single point]. With `CN(C)/C=C/C(=O)c1ccccc1F` the “activity change, negative = growth inhibition” value was inactive: 2.39%. With `Cc1cccc(C)c1NC(=O)CSc1nnc(Cn2nnc(-c3ccccc3)n2)n1-c1ccccc1` the Potency was inconclusive: 16.4 µM [inhibitor, single point]. For `CC(C)(C)OC(=O)N(CCc1ccccc1)Cc1cccc(OCc2cccc(NC(=O)C3CCC3)c2)c1`, the Potency was inconclusive: 18.4 µM [inhibitor, single point]. With `Clc1ccc(-c2nnc3sc(-c4ccc(Br)o4)nn23)c(Cl)c1` the Potency was inconclusive: 11.6 µM [inhibitor, partial curve]. In the case of `Cc1cnc(CNc2nc(-c3c(C)noc3C)nc3ccccc23)cn1`, the “activity change, negative = growth inhibition” value was inactive: 2.4%. With `Cc1ccc(C(=O)C(C)OC(=O)c2cc(=O)[nH]c3ccccc23)cc1` (centres undefined) the “activity change, negative = growth inhibition” value was inactive: -19.2%. With `Cc1cc(CNC(=O)c2cnn(-c3ncc4c(n3)-c3ccccc3CC4)c2C2CC2)on1` the Potency was inconclusive: 16.4 µM [inhibitor, single point]. In the case of `Cc1ccc(C)c(NC(=O)CSc2nc3ccccc3nc2N2CCOCC2)c1`, the Potency was “inactive”. With `C=CCNC(=O)c1ccc(-n2cccc2)cc1` the Potency was inconclusive: 25.9 µM [inhibitor, single point]. For `C=CCn1c(C(C)n2c(-c3cnccn3)nc3ccccc32)nc2ccccc21` (centres undefined), the Potency was inconclusive: 29.1 µM [inhibitor, single point]. For `CC(C)(C)OC(=O)N1CCC(c2c(C(=O)N3CCCCC3)cnn2-c2ccc(F)cc2)CC1`, the Potency was inconclusive: 25.9 µM [inhibitor, single point]. With `COc1cc(CN2CCC(Oc3cc(C(=O)NC4CC4)ccc3OC)CC2)cc(OC)c1` the “activity change, negative = growth inhibition” value was inactive: 18.8%. In the case of `CC(Sc1nc(C(F)(F)F)nc2ccccc12)C(=O)NC1CCCC1` (centres undefined), the Potency was inconclusive: 23.1 µM [inhibitor, single point]. With `CCN(CC)C(=O)c1c(NC(=O)c2ccccc2F)sc2c1CCC(C(C)(C)C)C2` (centres undefined) the Potency was inconclusive: 20.6 µM [inhibitor, single point]. For `COc1ccccc1NC(=O)C/C(C)=N/NC(=O)c1ccccn1`, the “activity change, negative = growth inhibition” value was inactive: -15.4%. In the case of `CC1CCN(S(=O)(=O)c2ccc(NC(=O)Cc3ccc(S(=O)(=O)N4CCOCC4)s3)cc2)CC1`, the Potency was active: 23.1 µM. In the case of `CC(C)c1cccc(C(C)C)c1Nc1cn[nH]c1`, the Potency was active: 20.6 µM. For `O=[N+]([O-])c1ccc(O)c(C=Nc2cccc3ccccc23)c1`, the “activity change, negative = growth inhibition” value was inactive: -14.6%. In the case of `CC(C)(C)OC(=O)N1CCC(NC(=O)c2nc[nH]c2C(=O)NCc2ccccc2)CC1`, the Potency was active: 23.1 µM. With `c1ccc(Cn2nnc3c(NCc4ccc5c(c4)OCO5)ncnc32)cc1` the Potency was inconclusive: 16.4 µM [inhibitor, partial curve, poor fit]. For `CC/C(=N/Nc1ccccc1)c1cnnc(-c2ccccc2)n1`, the Potency was inconclusive: 2.59 µM [inhibitor, partial curve]. In the case of `CCc1ccc(-c2nn(-c3ccc(OC)cc3)c3c2cnc2ccc(OC)cc23)cc1`, the Potency was active: 6.51 µM. For `COC(=O)c1sc(N)c(C(=O)OC)c1COC(=O)c1c(C)noc1C`, the Potency was active: 5.17 µM. In the case of `COc1cccc(C(=O)N2N=C(c3ccccc3)CC2(O)C(F)(F)F)c1` (centres undefined), the Potency was inconclusive: 29.1 µM [inhibitor, single point]. In the case of `Cc1cc2oc(C(=O)N(Cc3ccc(Cl)cc3)Cc3ccco3)c(C)c2cc1Cl`, the Potency was inconclusive: 23.1 µM [inhibitor, single point]. For `CCCCNC(=S)N(C)/N=C/c1ccc(OCC(=O)Nc2ccc(OC)cc2)c(OC)c1`, the Potency was inconclusive: 14.6 µM [inhibitor, partial curve, poor fit]. For `COc1ccccc1CSc1ncc(-c2ccc([N+](=O)[O-])cc2)[nH]1`, the Potency was inconclusive: 29.1 µM [inhibitor, single point]. With `CCCCCc1ccc(-c2ccc(OC)cc2)nc1` the “activity change, negative = growth inhibition” value was inactive: -25%. For `COC(=O)[C@H]1[C@H]2C[C@@H]3c4[nH]c5cc(OC)ccc5c4CCN3C[C@H]2C[C@@H](OC(=O)c2ccc(N)cc2)[C@@H]1OC`, the Potency was inconclusive: 23.1 µM [inhibitor, single point]. In the case of `CCCn1c(=O)sc2cc(NC(=O)c3ccccc3Cl)ccc21`, the Potency was inconclusive: 16.4 µM [inhibitor, single point]. In the case of `O=C(NC(=S)Nc1ccc(S(=O)(=O)Nc2nccs2)cc1)c1cccnc1`, the “activity change, negative = growth inhibition” value was inactive: 3.39%. With `C=CC1=CCN(S(=O)(=O)C(C)(C)C)[C@H]1CCO` the “activity change, negative = growth inhibition” value was inactive: -7.87%. With `COc1cc(NC(=O)CCn2nc(C)cc2C)cc(OC)c1OC` the “activity change, negative = growth inhibition” value was inactive: -13%. For `O=C(Cn1cnc([N+](=O)[O-])c1)NC1CCCC1`, the “activity change, negative = growth inhibition” value was inactive: 11.5%. In the case of `CN(CC1CCCN(CCc2cccc(C(F)(F)F)c2)C1)C(=O)c1ccc2nc[nH]c2c1` (centres undefined), the Potency was inconclusive: 23.1 µM [inhibitor, single point]. With `CCOC(=O)c1cc(S(=O)(=O)N2CCCC2)cn1C` the “activity change, negative = growth inhibition” value was inactive: -22.3%. With `Cc1ccc(-c2nc3ccccn3c2NCc2ccc3c(c2)OCO3)cc1` the Potency was inconclusive: 29.1 µM [inhibitor, single point]. In the case of `Cc1ccc(CC(=O)Nc2ccc(C(=O)N3CCCCC3)cc2)cc1`, the Potency was inconclusive: 29.1 µM [inhibitor, single point]. With `CCOc1ccc2nc(NS(=O)(=O)c3cccs3)sc2c1` the “activity change, negative = growth inhibition” value was inactive: -15.4%.
